The whole screen tested about 330,000 compounds, of which about 4,200 (1.3%) were called active. Inconclusive means that the source gave no clear call. Such entries were picked first, then a sample of the others. Calls come from the whole dose curve; as a rule, active = well fitted activation curve with a large enough effect; inconclusive = small, poorly fitted or top-dose-only effect; inactive = no such curve, though single readings can be large or run the other way. A potency beside an inconclusive call is a rough fit, not a confirmed value.
Assay: qHTS screen for small molecules that induce genotoxicity in human embryonic kidney (HEK293T) cells expressing luciferase-tagged ELG1; note: nearly all actives have a fitted effect of over 60% in size; for activity change, positive = activation: % of control where 0% means no effect
Conditions: HEK293T ELG1-luciferase reporter, luminescence, 16 h; series mostly up to 46 µM; activity change, positive = activation: at the top concentration
Summary of the method: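 DMSO vehicle served as control against compound-treated ELG1-luciferase HEK293T cells; exposure lasted 16 hr at 37 °C and 5% CO2, followed by ONE-Glo luminescence detection after 30 min.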
Potency is the fitted concentration of half-maximal effect; tags give direction and shape of the fitted curve.

| Structure (SMILES) | Potency | activity change, positive = activation |
| --- | --- | --- |
| O=C(N/N=C/c1cccs1)c1[nH]ncc1Br | active: 16.4 µM | – |
| O=C(CCc1ccccc1)Nc1ccc(N2CCCCC2)cc1 | inconclusive: 32.6 µM [activator, partial curve, poor fit] | – |
| COC(=O)Nc1nnc(/C=C/c2ccccc2)s1 | inconclusive: 18.4 µM [activator, partial curve, poor fit] | – |
| O=C(NCCCc1ccccn1)C1CCC(=O)N(Cc2cccc(F)c2)C1 (stereo not given) | – | inactive: 1.52% |
| Nc1ccc2nc(NC(=O)C3CCCCC3)sc2c1 | active: 20.6 µM | – |
| Cn1cc(C(=O)Nc2ccccn2)c(=O)c2ccccc21 | inconclusive: 13 µM [activator, partial curve] | – |
| COc1cccc(C(=O)NCCn2ccc3ccccc32)c1 | inconclusive: 11.6 µM [activator, partial curve] | – |
| O=C(/C=C/c1ccoc1)c1ccccc1O | inconclusive: 20.6 µM [activator, partial curve, poor fit] | – |
| Cc1cc(NCc2ccccn2)n2nc(C)c(-c3ccccc3)c2n1 | – | inactive: -7.48% |
| CC(C)Sc1nc(N)nc(-c2cccs2)c1C#N | inconclusive: 18.4 µM [activator, partial curve] | – |
| COc1ccccc1C(=O)Nc1ccccn1 | active: 12.6 µM | – |
| NC(=O)c1c(NC(=O)c2cccs2)sc2c1CCCCCC2 | – | inactive: 6.01% |
| Cc1cc(C(=O)CSc2n[nH]c(N)n2)c(C)n1-c1ccccc1 | active: 4.47 µM | – |
| N#Cc1nccnc1S(=O)(=O)c1cccs1 | – | inactive: -19.6% |
| COCCCNC(=O)Cn1cc(/C=C(\C#N)C(=O)NC2CC2)c2ccccc21 | – | inactive: -1.62% |
| O=C(N/N=C/C=C/c1ccccc1)c1cc2c(ccc3ccccc32)o1 | inconclusive: 18.4 µM [activator, partial curve, poor fit] | – |
| Nc1cc(N)nc(SCc2cccc(F)c2)n1 | inconclusive: 18.3 µM [activator, single point] | – |
| O=C(CSC(=S)N1CCCCC1)c1ccccc1 | active: 0.651 µM | – |
| Oc1ccc(-c2cccc(-c3ccc(O)cc3)c2)cc1 | inconclusive: 18.3 µM [activator, single point] | – |
| COc1cccc(N2CCN(C(=O)c3ccc4nc(N5CCCCC5)sc4c3)CC2)c1 | inconclusive: 4.11 µM [activator, single point] | – |
| Cc1cccnc1NC(=O)c1sc2ccccc2c1Cl | active: 3.66 µM | – |
| CCn1nc(C)c(Br)c1-c1nc(CS(=O)(=O)c2ccsc2)no1 | – | inactive: 3.42% |
| COc1ccc(C(=O)N2CCC2)cc1S(=O)(=O)NCc1ccc(Cl)cc1 | – | inactive: 1.95% |
| COC(=O)C1C(=O)c2c([nH]c(C(=O)OCCSC)c2C)CC1C (stereo not given) | active: 16.4 µM | – |
| O=C(c1cc(-c2ccc(Br)cc2)on1)N1CCOCC1 | active: 3.66 µM | – |

| Structure (SMILES) | Potency | activity change, positive = activation |
| --- | --- | --- |
| O=C(Cc1ccccc1)Nc1nnc(-c2cccs2)s1 | inconclusive: 9.2 µM [activator, partial curve] | – |
| COc1cc(Cc2nccc3cc(OC)c(OC)cc23)c(NC(C)=O)cc1OC | inconclusive: 22.4 µM [activator, partial curve, poor fit] | – |
| CC(C)c1ccc(-c2nnc(N)s2)cc1 | active: 18.4 µM | – |
| CCN1CCN(Cc2ccc(OCc3ccccc3)cc2)CC1 | active: 10.3 µM | – |
| O=C(CCNC(=O)c1ccc(Br)cc1)OCc1ccccc1Cl | inconclusive: 25.9 µM [activator, single point] | – |
| Cc1ccc(Cn2nc(-c3ccccc3)nc2-c2ccccc2)cc1 | inconclusive: 18.4 µM [activator, partial curve] | – |
| CCN(CCCNC(=O)CCn1c(=S)[nH]c2cc3c(cc2c1=O)OCO3)c1cccc(C)c1 | inconclusive: 20.6 µM [activator, partial curve, poor fit] | – |
| COc1cccc(CN2C(=O)CCC2(C)C(=O)NC2CCCC2)c1 (stereo not given) | – | inactive: 2.54% |
| Cc1cc(C)nc(N2CCC(C(=O)Nc3ccc4c(c3)CCC4)CC2)n1 | inconclusive: 13 µM [activator, partial curve] | – |
| Cc1nc(/N=C\N(C)C)sc1C(=O)Nc1ccccc1 | inconclusive: 23.1 µM [activator, partial curve, poor fit] | – |
| CC(=O)NC12CC3CC(C1)CC(C(=O)OCC(=O)Nc1ncc(Cl)c(C)c1Cl)(C3)C2 | – | inactive: -0.939% |
| COCCCN1C(=O)C(=O)/C(=C(/O)c2ccc(S(=O)(=O)N3CCOCC3)cc2)C1c1ccc(C(C)C)cc1 (stereo not given) | – | inactive: 1.36% |
| O=[N+]([O-])c1cc(Br)c(Nc2ccccc2)c([N+](=O)[O-])c1 | inconclusive: 20.6 µM [activator, partial curve, poor fit] | – |
| O=C(c1cc(COc2ccc(F)cc2Cl)on1)N1C[C@H]2CC[C@H]1C2 | inconclusive: 16.4 µM [activator, partial curve] | – |
| Fc1ccccc1-c1nc2ccccc2[nH]1 | inconclusive: 4.11 µM [activator, full curve] | – |
| CC(C)CCN1CCN=C1Nc1ccccc1 | – | inactive: -2.3% |
| CCOc1ccc(-c2nnc(NC(=O)C3CCCC3)o2)cc1 | – | inactive: 9.72% |
| COC(=O)NC(C)N1C(=O)C2C3C=CC(C3)C2C1=O (stereo not given) | inconclusive: 1.64 µM [activator, full curve, poor fit] | – |
| CCOC(=O)N1CCN(C(=O)c2ccc3oc(CCCc4ccccc4)nc3c2)CC1 | inconclusive: 10.3 µM [activator, partial curve, poor fit] | – |
| CN1C(=O)/C(=C/c2cccc(Cl)c2)Sc2ccc(C(=O)N3CCCC3)cc21 | – | inactive: -14.3% |
| Clc1ccc(CSc2cc3c(nn2)-c2ccccc2CC3)cc1 | – | inactive: 5.74% |
| O=C(CN1CCC(C(=O)c2ccc(F)cc2)CC1)Nc1ccccc1 | – | inactive: -4.98% |
| C=CCN=c1scc(-c2ccccc2)n1/N=C/c1ccccn1 | inconclusive: 6.51 µM [activator, partial curve, poor fit] | – |
| CCN(CC(=O)Nc1c(F)cccc1F)C(=O)/C=C/c1ccc(C)cc1 | inconclusive: 25.9 µM [activator, partial curve, poor fit] | – |
| CCc1ccc(-c2cn3c(n2)SCC3)cc1 | inconclusive: 2.91 µM [activator, partial curve] | – |
